Test results: the supplement of paper PMC4723716
Where “and” joins values, the source holds several entries; their conditions need not be identical. Equal entries are not always repeated. ± gives the uncertainty stated by the source. Whole data set: some 9,900 compounds, median “viability index relative to DMSO control” near 1, cut for the lowest 2% near 0.85. Some of the results follow.

Each compound was assayed on Plasmodium falciparum NF54 stage V gametocytes (assay: viability index relative to DMSO control (fraction); higher = less gametocyte killing). Conditions: 2.5 µM, library set: Broad Institute DOS, incubation time: 72 h.
Procedure, shortened: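 In 1,536-well plates, 10 µl of serum-free medium holding P. falciparum NF54 stage V gametocytes (0.75% gametocytemia, 1.25% hematocrit) received compound at 2.5 µM for 72 hr at 37°C in low oxygen. After one to two hours with 3 µl of 2.5 µM MitoTracker Red CMXRos containing 0.13% saponin, red particles of 20–70 µm2 were counted in a single field per well. Viability index is reported as the particle count over the plate mean of wells treated with solvent only.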

| SMILES | viability index |
| --- | --- |
| COc1ccc(NC(=O)Nc2ccc3c(c2)[C@H]2C[C@@H](CC(=O)NCC(F)(F)F)O[C@@H](CO)[C@H]2O3)cc1 | 1.14 ± 0.05 |
| CN(C)C(=O)[C@H]1[C@H](CO)[C@H]2Cn3c(ccc(/C=C/c4ccccc4)c3=O)[C@H]2N1C(=O)c1cccnc1 | 0.956 ± 0.03 |
| O=C(C[C@H]1C[C@H]2c3cc(NC(=O)Nc4ccccc4F)ccc3O[C@H]2[C@@H](CO)O1)NCc1ccccn1 | 1.01 ± 0.024 |
| CN(C)c1ccc2c(c1)[C@@H]1C[C@@H](CC(=O)NCc3ccccn3)O[C@@H](CO)[C@@H]1O2 | 1.04 ± 0.057 |
| O=C(NC1Cc2ccccc2C1)[C@H]1[C@H](CO)[C@H]2Cn3c(cccc3=O)[C@H]2N1C(=O)c1cnccn1 | 1.07 ± 0.044 |
| CC(=O)N1CC2(C1)[C@@H](c1ccccc1)[C@@H](CO)N2C(=O)Cc1ccccc1 | 1.063 ± 0.0082 |
| CCCN1C[C@@H](C)[C@@H](OC)CN(C)C(=O)c2cc(NS(=O)(=O)c3ccccc3)ccc2OC[C@H]1C | 1.049 ± 0.0032 |
| CCc1csc(N2[C@@H](C#N)[C@@H](c3ccccc3-c3ccc(F)cc3)[C@@H]2CO)n1 | 1.09 ± 0.08 |
| COc1ccccc1NC(=O)N1C[C@H](O)COC[C@@H]2O[C@H](CC(=O)NCCc3ccncc3)CC[C@H]21 | 1.03 ± 0.026 |
| C[C@@H]1CN([C@H](C)CO)C(=O)c2ccccc2-c2ccccc2CO[C@@H]1CN(C)C(=O)[C@@H](Cc1ccccc1)N(C)C | 1.01 ± 0.051 |
| COc1ccccc1NC(=O)N1C[C@@H]2N[C@H](C1)[C@H]2c1ccc(/C=C/c2ccccc2)cc1 | 0.976 ± 0.048 |
| O=C(Nc1ccc(F)cc1)N1CC(=O)N2[C@H](C1)[C@H](c1ccc(-c3cccc(F)c3)cc1)[C@@H]2CO | 1.06 ± 0.015 |
| COc1ccc2c3c([nH]c2c1)[C@H](CO)N(C[C@]31CCN(CC1)C(C)=O)C(C)=O | 1.035 ± 0.0018 |
| C[C@@H](NC(=O)C[C@@H]1C=C[C@@H](NS(=O)(=O)c2cccc(F)c2)[C@H](CO)O1)c1ccccc1 | 1.09 ± 0.027 |
| CO[C@@H]1CN(C)C(=O)c2cc(NC(=O)Nc3cc(F)ccc3F)ccc2OC[C@H](C)NC[C@@H]1C | 1.03 and 1.14 |
| COc1ccc2c3c([nH]c2c1)[C@H](CO)N(Cc1ccccc1)C[C@]31CN(C1)C(=O)Nc1cccc(F)c1 | 1 ± 0.02 |
| COCC(=O)Nc1ccc2c(c1)[C@@H]1C[C@H](CC(=O)N3CCOCC3)O[C@H](CO)[C@@H]1O2 | 1.1 ± 0.016 |
| O=C(Nc1ccc(F)cc1)N1C[C@@H]2[C@H](c3ccccc31)[C@@H](CO)N2Cc1ccccc1Cl | 1.13 ± 0.043 |
| C[C@@H]1CN([C@H](C)CO)C(=O)CCCn2nncc2CO[C@@H]1CN(C)C(=O)Nc1ccccc1C(F)(F)F | 0.97 ± 0.051 |
| CCCC(=O)Nc1ccc2c(c1)C(=O)N(C)[C@@H]1CC[C@@H](CC(=O)NCc3cccc(F)c3)O[C@H]1CO2 | 0.991 ± 0.12 |
| O=C(c1cccc(F)c1)N1C[C@H]2[C@@H](c3ccccc31)[C@@H](CO)N2Cc1cocn1 | 0.997 ± 0.053 |
| COC(=O)C[C@@H]1CC[C@@H]2[C@H](COc3ccc(NC(=O)Nc4c(C)noc4C)cc3C(=O)N2C)O1 | 0.966 ± 0.053 |
| Cc1ccccc1S(=O)(=O)N1C[C@@H]2N[C@H](C1)[C@H]2c1ccc(/C=C/c2ccccc2)cc1 | 1 ± 0.048 |
| CO[C@@H]1CN(C)C(=O)c2cc(NC(=O)c3nc4ccccc4s3)ccc2OC[C@@H](C)NC[C@H]1C | 1.11 ± 0.067 |

| SMILES | viability index |
| --- | --- |
| CC(C)C#Cc1ccc([C@H]2[C@H]3CN(C(=O)c4ccc5c(c4)OCO5)CC(=O)N3[C@H]2CO)cc1 | 0.988 ± 0.036 |
| COc1ccc2c3c([nH]c2c1)[C@H](CO)NC[C@]31CN(Cc2cc(F)ccc2F)C1 | 1.03 ± 0.011 |
| N#C[C@H]1[C@@H](c2ccc(-c3cccnc3)cc2)[C@@H](CO)N1C(=O)C1CCOCC1 | 1.07 ± 0.031 |
| CCCC(=O)N1C[C@]2(CN(C2)C(=O)NC(C)C)c2c([nH]c3cc(OC)ccc23)[C@@H]1CO | 1.05 ± 0.018 |
| O=C(C[C@@H]1CC[C@H]2NC[C@H](O)COC[C@@H]2O1)Nc1nccs1 | 1.04 ± 0.068 |
| N#C[C@H]1N[C@H](CO)[C@H]1c1ccc(-c2cccc(F)c2)cc1 | 1.1 ± 0.075 |
| C[C@@H]1CCCCO[C@H](CN(C)C(=O)CCC(F)(F)F)[C@@H](C)CN([C@H](C)CO)C(=O)c2cc(NC(=O)C3CCCCC3)ccc2O1 | 1.08 ± 0.12 |
| COc1ccc2c3c([C@@H](CO)N(Cc4nccs4)C[C@]33CCN(CC3)C(=O)CN(C)C)n(C)c2c1 | 0.905 ± 0.039 |
| COc1ccccc1NC(=O)N1C[C@@H]2[C@H](c3ccccc31)[C@H](CO)N2C(=O)C1CCCC1 | 1.01 ± 0.096 |
| CO[C@@H]1CC[C@H]2CCOc3c(C#N)cccc3C(=O)N(C)C[C@@H](OC)[C@H](C)C(=O)N(C)C[C@@H]1O2 | 1.047 ± 0.0065 |
| C[C@H]1CN([C@@H](C)CO)C(=O)c2cccc(NS(=O)(=O)c3cn(C)cn3)c2O[C@H]1CN(C)Cc1ccc(Oc2ccccc2)cc1 | 1.09 ± 0.081 |
| CO[C@@H]1CN(C)C(=O)c2cc(NC(C)=O)ccc2OC[C@@H](C)N(C(=O)Cc2ccccn2)C[C@H]1C | 1.04 ± 0.12 |
| CN1C(=O)c2cc(NC(=O)Nc3ccccc3Cl)ccc2OC[C@@H]2O[C@H](CC(=O)NCCCN3CCOCC3)CC[C@@H]21 | 1.11 ± 0.013 |
| O=C(C1CCC1)N1CCCCN2[C@@H](CO)[C@H](c3ccc(-c4ccncc4)cc3)[C@@H]2C1 | 1.03 ± 0.079 |
| C/C=C/c1ccc([C@@H]2[C@H](CO)N[C@H]2CN(CC(C)C)C(=O)c2ccccn2)cc1 | 1.01 ± 0.019 |
| COc1cccc(S(=O)(=O)N2C[C@H](O)COC[C@H]3O[C@@H](CC(=O)NCCCN4CCOCC4)CC[C@@H]32)c1 | 1.02 ± 0.053 |
| C[C@H](NC(=O)C[C@H]1CC[C@H]2[C@@H](COC[C@@H](O)CN2Cc2ccc(C(F)(F)F)cc2)O1)c1ccccc1 | 1.02 ± 0.06 |
| COCC(=O)N1[C@@H](CO)[C@@H](c2ccccc2)C12CN(Cc1cc(F)ccc1F)C2 | 0.967 ± 0.026 |
| CCS(=O)(=O)N1C[C@@]2(C1)CN(Cc1ccccc1F)[C@@H](CO)c1[nH]c3cc(OC)ccc3c21 | 0.939 ± 0.055 |
| CCCN1[C@@H]2c3ccc(-c4ccccc4)c(=O)n3C[C@H]1[C@H](CO)[C@H]2C(=O)NCC | 1.064 ± 0.0077 |
| O=C(NCC[C@@H]1CC[C@@H](NC(=O)c2ccncc2)[C@H](CO)O1)Nc1ccc(Cl)cc1 | 1.05 ± 0.026 |
| C[C@@H]1CN([C@H](C)CO)S(=O)(=O)c2ccc(C#Cc3cccc(F)c3)cc2O[C@H]1CN(C)S(=O)(=O)c1cn(C)cn1 | 0.803 ± 0.052 |
| CCS(=O)(=O)N1CC2(C1)[C@H](c1ccccc1)[C@H](CO)N2Cc1ccc(F)cc1 | 1.08 ± 0.061 |
| COc1cccc(NC(=O)N2CC(=O)N3[C@@H](CO)[C@H](c4ccc(C#CCC5CCCC5)cc4)[C@@H]3C2)c1 | 1.03 ± 0.058 |

| SMILES | viability index |
| --- | --- |
| COc1ccc(C#Cc2ccc([C@H]3[C@H]4CN(C(=O)c5ccc(F)cc5)CC(=O)N4[C@H]3CO)cc2)cc1 | 1 ± 0.082 |
| C/C=C/c1cccc(-c2nc(C(=O)NCCN3CCCCC3)cc3c2[C@H](CCO)N([S@@](=O)C(C)(C)C)C3)c1 | 1.04 ± 0.051 |
| CNC[C@@H]1Oc2ccc(NS(=O)(=O)c3ccc(OC)cc3)cc2C(=O)N([C@@H](C)CO)C[C@H]1C | 0.994 ± 0.019 |
| C[C@@H]1CCCCO[C@@H](CN(C)C(=O)c2ccncc2)[C@H](C)CN([C@@H](C)CO)C(=O)c2cc(NC(=O)CCC(F)(F)F)ccc2O1 | 1.066 ± 0.0069 |
| CN(C)C(=O)c1ccc(-c2cccc(-c3nc(C(=O)NC4CCCCC4)cc4c3[C@H](CCO)N([S@@](=O)C(C)(C)C)C4)c2)cc1 | 1.01 ± 0.046 |
| CCCC(=O)Nc1ccc2c(c1)OC[C@@H](C)N(C(=O)c1cccnc1)C[C@H](C)[C@@H](OC)CN(C)C2=O | 1.09 ± 0.05 |
| CCCN(C)C[C@@H]1Oc2cc(/C=C/c3ccccc3)ccc2S(=O)(=O)N([C@@H](C)CO)C[C@H]1C | 1.102 ± 0.0059 |
| CO[C@@H]1CN(C)C(=O)c2cc(NS(C)(=O)=O)ccc2OC[C@H](C)N(C(=O)C2CCOCC2)C[C@H]1C | 1.16 ± 0.02 |
| COc1ccc(NC(=O)N(C)C[C@@H]2Oc3c(NC(=O)CCCCCC(=O)Nc4ccccc4N)cccc3C(=O)N([C@@H](C)CO)C[C@H]2C)cc1 | 1.07 ± 0.091 |
| O=C(Cc1ccncc1)NCC[C@H]1CC[C@H](NS(=O)(=O)c2ccccc2Cl)[C@H](CO)O1 | 1.09 ± 0.031 |
| O=C(C[C@H]1CC[C@H]2[C@@H](COC[C@H](O)CN2Cc2nccs2)O1)N1CCC(Cc2ccccc2)CC1 | 1.03 ± 0.078 |
| COc1ccc2c3c([C@H](CO)NC[C@]33CN(Cc4ccc(F)cc4)C3)n(C)c2c1 | 0.841 ± 0.014 |
| O=C([C@@H]1[C@@H](CO)[C@@H]2Cn3c(cccc3=O)[C@H]1N2)N1CCc2ccccc2C1 | 1.06 ± 0.056 |
| COc1ccccc1C#Cc1ccc2c(c1)[C@@H]1NCC[C@@H]1[C@H](CO)N2 | 1.01 ± 0.016 |
| C[C@H]1CN([C@@H](C)CO)C(=O)c2cc(NC(=O)Nc3ccccc3)ccc2O[C@H]1CN(C)Cc1ccccc1 | 1.092 ± 0.0056 |
| O=C(C[C@H]1CC[C@@H]2[C@H](COC[C@H](O)CN2C(=O)c2cc(Cl)cc(Cl)c2)O1)N1CCc2ccccc2C1 | 0.939 ± 0.025 |
| O=C1CNC[C@H]2[C@@H](c3ccc(C4=CCCC4)cc3)[C@H](CO)N12 | 1.06 ± 0.14 |
| O=C(c1cccnc1)N1CC(=O)N2[C@H](CO)[C@@H](c3ccc(-c4ccccc4F)cc3)[C@H]2C1 | 0.983 ± 0.011 |
| COc1ccc(-c2ccc([C@@H]3[C@@H](CO)N4C(=O)CN(C(=O)Cc5ccccn5)C[C@H]34)cc2)cc1 | 1.02 ± 0.012 |
| C[C@@H]1CCCCO[C@@H](CN(C)S(=O)(=O)c2cn(C)cn2)[C@H](C)CN([C@H](C)CO)C(=O)c2cc(NC(=O)Nc3cccc4ccccc34)ccc2O1 | 1.01 ± 0.077 |
| CN(C)CC(=O)N1[C@H](C#N)[C@@H](c2ccc(-c3cccc(C(=O)N(C)C)c3)cc2)[C@@H]1CO | 1.14 ± 0.038 |
| CCC(=O)N1[C@H](C#N)[C@H](c2ccccc2-c2ccccc2)[C@@H]1CO | 1.16 ± 0.13 |
| CN1C[C@@H](O)COC[C@H]2O[C@H](CC(=O)NC3CCCC3)CC[C@@H]21 | 1.05 ± 0.064 |
